pIC50, pKd: −log10 of the molar value. Like-named read-outs stand apart in the source and are kept apart here.
Columns and labels:
[1] = molecular target: T1, purified mutant MGL (mut-MGLL 11-313 L179S L186S) (Homo sapiens, UniProt Q99685, L169S/L176S); settings: read-out: Ex. 3 (mutant) IC50
T1 sequence (Q99685 1-303 L169S/L176S): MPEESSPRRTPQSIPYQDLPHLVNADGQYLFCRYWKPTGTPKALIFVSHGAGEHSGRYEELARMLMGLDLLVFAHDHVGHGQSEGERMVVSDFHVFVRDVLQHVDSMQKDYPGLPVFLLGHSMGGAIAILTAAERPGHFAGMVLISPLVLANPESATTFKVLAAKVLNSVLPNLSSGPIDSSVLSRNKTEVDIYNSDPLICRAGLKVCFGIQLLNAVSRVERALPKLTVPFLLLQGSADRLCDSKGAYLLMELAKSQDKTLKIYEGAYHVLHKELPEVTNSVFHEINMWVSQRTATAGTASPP

[2] = molecular target: T1, purified mutant MGL (mut-MGLL 11-313 L179S L186S); settings: read-out: Ex. 4 Kd
[3] = molecular target: T1, purified mutant MGL (mut-MGLL 11-313 L179S L186S); assay: biochemical; settings: Ex. 3 (mutant) IC50, mutant MGL (mut-MGLL 11-313 L179S L186S)
[4] = molecular target: T1, purified mutant MGL (mut-MGLL 11-313 L179S L186S); assay: biochemical; settings: Ex. 4 Kd, ThermoFluor
[5] = mutant MGL (mut-MGLL 11-313 L179S L186S)

Row | pIC50 [3] | pKd [4] | SMILES | also measured
1 |  |  | O=C(c1ccc(-c2ccccc2)cc1)N1CC(N2CCCN(c3ncccn3)CC2)C1 [compound 83] | pIC50 [1, 5]: 5.55; pKd ([2]; ThermoFluor, mutant MGL): 5.62
2 |  |  | O=C(c1ccc2c(c1)CCCN2)N1CC(N2CCN(c3cccc(C(F)(F)F)c3)CC2)C1 [Compound #223] | pIC50 ([1]; mutant MGL, substrate 4MU-B): < 4.77; pKd ([2]; ThermoFluor, mutant MGL): < 4.51
3 |  |  | Cc1ccc(-c2cc3cc(C(=O)N4CC(N5CCN(c6ccccn6)CC5)C4)ccc3n2CC(C)C)cc1 [Compound #215] | pIC50 ([1]; mutant MGL, substrate 4MU-B): 7.22
4 |  |  | O=C(c1ccc(C2CCCCC2)cc1)N1CC(N2CCN(c3ccc(C(F)(F)F)cn3)CC2)C1 [Compound #202] | pIC50 ([1]; mutant MGL, substrate 4MU-B): < 4.82; pKd ([2]; ThermoFluor, mutant MGL): 4.60
5 |  |  | O=C(C=Cc1ccc(SC(F)(F)F)cc1)N1CC(N2CCCN(c3ncccn3)CC2)C1 [Compound #206] | pIC50 ([1]; mutant MGL, substrate 4MU-B): < 4.78; pKd ([2]; ThermoFluor, mutant MGL): 4.90
6 |  |  | O=C(c1ccccc1)c1ccccc1C(=O)N1CC(N2CCN(c3ccccn3)CC2)C1 [Compound #201] | pKd ([2]; ThermoFluor, mutant MGL): < 4.12
7 |  |  | O=C(c1cc(-c2ccccc2)c(C(F)(F)F)s1)N1CC(N2CCN(c3ccccn3)CC2)C1 [compound 61, 1-(1-{[4-Phenyl-5-(trifruoromethyl)thiophen-2-yl]carbonyl}azetidin-3-yl)-4-pyridin-2-ylpiperazine] | pIC50 [1, 5]: 6.34; pKd ([2]; ThermoFluor, mutant MGL): 5.66
8 |  |  | c1ccc(Cc2ccc(N3CC(N4CCCN(c5ncccn5)CC4)C3)cc2)cc1 [compound 110, 1-[1-(4-Benzyl-phenyl)-azetidin-3-yl]-4-pyrimidin-2-yl-[1,4]diazepane] | pIC50 [1, 5]: 5.77; pKd ([2]; ThermoFluor, mutant MGL): 5.70
9 |  |  | O=C(C1Cc2ccccc2C1)N1CC(N2CCN(c3ccccn3)CC2)C1 [Compound #221] | pIC50 ([1]; mutant MGL, substrate 4MU-B): < 4.82; pKd ([2]; ThermoFluor, mutant MGL): 4.76
10 |  |  | COc1ccc(-c2nc3cccc(C(=O)N4CC(N5CCN(c6ccccn6)CC5)C4)c3o2)cc1 [Compound #210] | pKd ([2]; ThermoFluor, mutant MGL): 7.08
11 |  |  | CC(C)Cc1ccc([C@H](C)C(=O)N2CC(N3CCN(c4ccccn4)CC3)C2)cc1 [Compound #219] | pIC50 ([1]; mutant MGL, substrate 4MU-B): < 4.82; pKd ([2]; ThermoFluor, mutant MGL): < 4.12
12 |  |  | CC(C)(C)OC(=O)N1CCC(Oc2ccc(N3CC(N4CCCN(c5ccccn5)CC4)C3)cc2)CC1 [compound 124, 4-{4-[3-(4-Pyridin-2-yl-[1,4]diazepan-1-yl)-azetidin-1-yl]-phenoxy}-piperidine-1-carboxylic acid tert-butyl ester] | pIC50 [1]: 6.58; pKd [2]: 6.27
13 |  |  | CCCc1cc2cc(C(=O)N3CC(N4CCN(c5ccccn5)CC4)C3)ccc2n1C [Compound #213] | pIC50 ([1]; mutant MGL, substrate 4MU-B): 6.09; pKd ([2]; ThermoFluor, mutant MGL): 5.34
14 | 5.19 | 5.18 | Cc1cccnc1N1CCN(C2CN(C(=O)c3ccc(C4CCCCC4)cc3)C2)CC1 [compound 100, 1-{1-[(4-Cyclohexylphenyl)carbonyl]azetidin-3-yl}-4-(3-methylpyridin-2-yl)piperazine] | 
15 | 6.19 | 6.04 | O=C(c1ccc2c(=O)c3ccccc3oc2c1)N1CC(N2CCN(c3ccccn3)CC2)C1 [compound 130, 3-{[3-(4-Pyridin-2-ylpiperazin-1-yl)azetidin-1-yl]carbonyl}-9H-xanthen-9-one] | 
16 | > 8.30 | 8.10 | O=C(c1ccc(N2CCCCCC2)cc1)N1CC(N2CCN(c3ccccn3)CC2)C1 [compound 3, 1-(4-{[3-(4-Pyridin-2-ylpiperazin-1-yl)azetidin-1-yl]carbonyl}phenyl)azepane] | 
17 | > 8.30 | 8.00 | CN(c1ccc(C(=O)N2CC(N3CCN(c4ccccn4)CC3)C2)cc1)C1CCCCC1 [Compound #1, N-Cyclohexyl-N-methyl-4-{[3-(4-pyridin-2-ylpiperazin-1-yl)azetidin-1-yl]carbonyl}aniline] | 
18 | 5.09 | 5.18 | O=C(c1ccc2ncccc2c1)N1CC(N2CCN(c3ccccn3)CC2)C1 [compound 115, 6-{[3-(4-Pyridin-2-ylpiperazin-1-yl)azetidin-1-yl]carbonyl}quinoline] | 

Row | pIC50 [3] | pKd [4] | SMILES | also measured
19 | 5.06 | 5.16 | O=C(c1ccc2ccccc2n1)N1CC(N2CCN(c3ccccn3)CC2)C1 [compound 116, 2-{[3-(4-Pyridin-2-ylpiperazin-1-yl)azetidin-1-yl]carbonyl}quinoline] | 
20 | 7.64 | 7.21 | O=C(c1ccc(Oc2ccccc2)cc1)N1CC(N2CCN(c3ncccn3)CC2)C1 [Compound #20, 2-(4-{1-[(4-Phenoxyphenyl)carbonyl]azetidin-3-yl}piperazin-1-yl)pyrimidine] | 
21 | 7.40 | 6.48 | O=C(c1ccc(Cc2ccccc2)cc1)N1CC(N2CCN(c3ccccn3)CC2)C1 [compound 30, 1-{1-[(4-Benzylphenyl)carbonyl]azetidin-3-yl}-4-pyridin-2-ylpiperazine] | 
22 | 5.56 | 5.53 | O=C(c1cc2c(OCc3ccccc3)cccc2[nH]1)N1CC(N2CCN(c3ccccn3)CC2)C1 [compound 120, 4-(Benzyloxy)-2-{[3-(4-pyridin-2-ylpiperazin-1-yl)azetidin-1-yl]carbonyl}-1H-indole] | 
23 | 6.55 | 6.60 | O=C(c1ccc(C2CCCCC2)cc1)N1CC(N2CCN(c3ccc(Cl)cn3)CC2)C1 [compound 56, 1-(5-Chloropyridin-2-yl)-4-{1-[(4-cyclohexylphenyl)carbonyl]azetidin-3-yl}piperazine] | 
24 | 5.35 | 5.20 | COc1ccccc1N1CCN(C2CN(C(=O)c3ccc(-c4ccccc4)cc3)C2)CC1 [compound 89, 1-[1-(Biphenyl-4-ylcarbonyl)azetidin-3-yl]-4-(2-methoxyphenyl)piperazine] | 
25 | 7.43 | 6.64 | CC1(C)CCC(C)(C)c2cc(CCC(=O)N3CC(N4CCN(c5ccccn5)CC4)C3)ccc21 [compound 29, 1-Pyridin-2-yl-4-{1-[3-(5,5,8,8-tetramethyl-5,6,7,8-tetrahydronaphth-2-yl)propanoyl]azetidin-3-yl}piperazine] | 
26 | 6.58 | 5.88 | CCCCCC1CCC(C(=O)N2CC(N3CCN(c4ccccn4)CC3)C2)CC1 (centres unmarked) [compound 54, 1-{1-[(4-Pentylcyclohexyl)carbonyl]azetidin-3-yl}-4-pyridin-2-ylpiperazine] | 
27 | 6.71 | 6.38 | O=C(CCc1ccc(I)cc1)N1CC(N2CCN(c3ncccn3)CC2)C1 [compound 51, 2-(4-{1-[3-(4-Iodophenyl)propanoyl]azetidin-3-yl}piperazin-1-yl)pyrimidine] | 
28 | 6.29 | 5.34 | O=C(c1cc2cc(OCc3ccccc3)ccc2[nH]1)N1CC(N2CCN(c3ccccn3)CC2)C1 [compound 62, 5-(Benzyloxy)-2-{[3-(4-pyridin-2-ylpiperazin-1-yl)azetidin-1-yl]carbonyl}-1H-indole] | 
29 | 7.74 | 7.04 | O=C(c1ccc(C2CCCCC2)cc1)N1CC(N2CCN(c3ccccn3)CC2)C1 [compound 15, 1-{1-[(4-Cyclohexylphenyl)carbonyl]azetidin-3-yl}-4-pyridin-2-ylpiperazine] | 
30 | 5.15 | 5.40 | CCOc1cccc(/C=C/C(=O)N2CC(N3CCN(c4ccccn4)CC3)C2)c1 [compound 113, 1-{1-[(2E)-3-(3-Ethoxyphenyl)prop-2-enoyl]azetidin-3-yl}-4-pyridin-2-ylpiperazine] | 
31 | 6.21 | 6.10 | O=C(c1cccc(-c2ccccc2)c1)N1CC(N2CCN(c3ccccn3)CC2)C1 [compound 67, 1-[1-(Biphenyl-3-ylcarbonyl)azetidin-3-yl]-4-pyridin-2-ylpiperazine] | 
32 | 5.92 | 5.66 | O=C(c1ccccc1)c1ccc(C(=O)N2CC(N3CCN(c4ccccn4)CC3)C2)cc1 [compound 74, Phenyl(4-{[3-(4-pyridin-2-ylpiperazin-1-yl)azetidin-1-yl]carbonyl}phenyl)methanone] | 
33 | 5.63 | 5.35 | CCCCc1ccc(C(=O)N2CC(N3CCN(c4ccccn4)CC3)C2)nc1 [compound 119, 1-{1-[(5-Butylpyridin-2-yl)carbonyl]azetidin-3-yl}-4-pyridin-2-ylpiperazine] | 
34 | 6.77 | 6.15 | O=C(c1ccc2[nH]c(-c3ccccc3)nc2c1)N1CC(N2CCN(c3ccccn3)CC2)C1 [compound 49, 2-Phenyl-5-{[3-(4-pyridin-2-ylpiperazin-1-yl)azetidin-1-yl]carbonyl}-1H-benzimidazole] | 
35 | 6.01 | 6.32 | NS(=O)(=O)c1ccc(-n2nc(C(=O)N3CC(N4CCN(c5ccccn5)CC4)C3)cc2-c2ccc(Cl)cc2)cc1 [compound 72, 4-[5-(4-Chlorophenyl)-3-{[3-(4-pyridin-2-ylpiperazin-1-yl)azetidin-1-yl]carbonyl}-1H-pyrazol-1-yl]benzenesulfonamide] | 
36 | 5.69 | 5.94 | O=C(c1cccc(N2Cc3ccccc3C2)c1)N1CC(N2CCN(c3ccccn3)CC2)C1 [compound 81, 2-(3-{[3-(4-Pyridin-2-ylpiperazin-1-yl)azetidin-1-yl]carbonyl}phenyl)-2,3-dihydro-1H-isoindole] | 

Row | SMILES | pIC50 [3] | pKd [4] | also measured
37 | O=C(Cc1ccc(-c2ccccc2)cc1)N1CC(N2CCN(c3ccccn3)CC2)C1 [compound 88, 1-[1-(Biphenyl-4-ylacetyl)azetidin-3-yl]-4-pyridin-2-ylpiperazine] | 5.40 | 5.15 | 

Source: US20130184251A1, “HETEROAROMATIC AND AROMATIC PIPERAZINYL AZETIDINYL AMIDES AS MONOACYLGLYCEROL LIPASE INHIBITORS” (Janssen Pharmaceutica, NV, priority 2009, published 2013)
